Out of some 410,000 compounds screened, about 1,200 (0.29%) were called active. The shares of active, inactive and inconclusive entries below differ from those in the screen. Calls follow the shape of the dose curve; as a rule, active = well fitted activation curve with a large enough effect; inconclusive = small, poorly fitted or top-dose-only effect; inactive = flat fitted curve, though single readings scatter. Potencies of inconclusive entries are doubtful fits and often do not repeat.
Experiment: qHTS of Nrf2 Activators; also: nearly all actives have a fitted effect of over 65% in size
Details: AREc32 ARE-luciferase reporter (MCF7-derived line), luminescence, 24 h; series mostly up to 46.1 µM
Summary of the method: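 For detection, Steady-Glo was added and plates sat 30 min at RT; before that, AREc32_Fluc cells grown overnight in OPTI-MEM/5% FBS had been treated with 23 nL compound for 24 hr at 37 deg C.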
Potency is read from the fitted curve at half-maximal effect; tags tell the direction and shape of the fitted curve.

Potency, inconclusive:
Cc1cc(Br)ccc1NC(=O)c1ccco1 15.8 µM [activator, single point]
Cn1nc(C(=O)Nc2ccc3c(c2)OCCO3)c2ccccc2c1=O 22.4 µM [activator, single point]
CC(=O)Nc1nc(C=C(Cl)Cl)cs1 22.4 µM [activator, single point]
Cc1ccc(NC2=C(Cl)C(=O)OC2OC(=O)c2ccccc2)c(C)c1 (stereo not drawn) 20 µM [activator, single point]
CC(C)(C)c1nnc2sc(SCC(=O)N3CCCc4ccccc43)nn2c1=O 22.4 µM [activator, single point]
CSc1nc(Nc2ccc(F)cc2)cc(-c2ccccc2)n1 3.16 µM [activator, single point]
CCCCN1C(=O)c2cccc3cc(O)cc(c23)C1=O 31.6 µM [activator, partial curve, poor fit]
COc1ccccc1-c1nc(SCC(=O)Nc2ccccc2)n[nH]1 17.8 µM [activator, single point]
Fc1ccc(NCc2ccccc2-c2nnc(-c3ccccc3Cl)o2)cc1 12.6 µM [activator, partial curve, poor fit]
Cc1ccc2ncc(C(=O)c3ccc(C)c(C)c3)c(S(=O)(=O)c3ccc(F)cc3)c2c1 20 µM [activator, single point]
Fc1ccc(-c2nc3c4ccccc4ccn3c2Cc2ccccc2C(F)(F)F)cc1 4.47 µM [activator, full curve]
COc1ccc(OC)c2nc(-c3ccncc3)ccc12 11.2 µM [activator, partial curve]
O=C(Oc1ccccc1/C=C\C(=O)c1cc2ccccc2o1)c1ccccc1 7.94 µM [activator, partial curve]
COC(=O)c1scc(C)c1NC(=O)c1ccc(Cl)cc1 10 µM [activator, partial curve, poor fit]
O=C(CCl)Nc1ccccc1C(=O)NCc1ccccc1 28.2 µM [activator, single point]
Cc1c(NC(=O)c2ccc(=O)oc2)c(=O)n(-c2ccccc2)n1C 31.6 µM [activator, single point]
O=C(Nc1ccc2c(c1)C(=O)c1ccccc1-2)c1ccccc1 5.01 µM [activator, partial curve]
Cc1sc(NC(=O)/C=C/c2ccco2)c(C(=O)OC(C)C)c1C 0.708 µM [activator, full curve, poor fit]
CC(CC(=O)O)C(=O)c1ccc(Cl)c([N+](=O)[O-])c1 (stereo not drawn) 11.2 µM [activator, partial curve, poor fit]
C=CCN1C(=O)N/C(=C/c2ccc(C)o2)C1=O 22.4 µM [activator, single point]
CN1C2CCC1/C(=C\c1ccccc1F)C(=O)/C2=C/c1ccccc1F 15.8 µM [activator, single point]
O=[N+]([O-])c1ccccc1OCCOc1ccccc1[N+](=O)[O-] 2.82 µM [activator, full curve, poor fit]
CC(=O)Nc1ccc(OS(=O)(=O)c2ccc([N+](=O)[O-])cc2)cc1 15.8 µM [activator, single point]
O=C(Nc1ccccc1Cl)c1sc2cccc(Cl)c2c1Cl 22.4 µM [activator, single point]
O=S(=O)(c1ccccc1)N(CC1CO1)c1cccc2ccccc12 (stereo not drawn) 31.6 µM [activator, single point]

Potency, active:
O=C(/C=C/c1ccco1)NCC(=O)N/N=C/c1ccccc1[N+](=O)[O-] 11.2 µM
CC(=O)OC1(C(C)=O)CCC2C3CC(C(F)(F)F)C4=CC(=O)CCC4(C)C3CCC21C (stereo not drawn) 7.08 µM
CN1c2ccsc2/C(=N/Nc2ccccc2)CS1(=O)=O 7.08 µM
O=C(/C=C/c1cccc(Cl)c1Cl)OCC(=O)N1CCOCC1 17.8 µM

Potency, inactive:
O=C(CCCN1CCN(c2ccccc2)CC1)c1ccc(F)cc1
COc1ccc(C2NC(=O)NC(O)(C(F)(F)F)C2C(=O)c2ccccc2)cc1OC (stereo not drawn)
COc1ccc2cc1Oc1ccc(cc1)C[C@H]1c3cc(c(OC)cc3CCN1C)Oc1c(OC)c(OC)cc3c1[C@H](C2)N(C)CC3
Cc1nn(C)c(C)c1CNC(=O)Nc1ccc(Cl)cc1
CCOC(=O)c1ccc(-n2cccc2/C=C2\NC(=O)NC2=O)cc1
CCC(=O)OCCNc1cc(Sc2nc3ccccc3s2)c2nonc2c1[N+](=O)[O-]
CCC(C)[C@H]1COCCS(=O)(=O)N1Cc1ccccc1F (stereo partly drawn)
COc1ccc(/C=N/Nc2nc(-c3ccc(Cl)cc3)cc(C(F)(F)F)n2)c(OC)c1
Cc1c(C(=O)Nc2ccc(OC(F)(F)F)cc2)sc2nc3n(c(=O)c12)CCC3
CC(=O)N1N=C(N)SC1(C)C
COc1cc(NS(=O)(=O)c2ccc(NC(=S)NC(=O)c3ccc(F)cc3)cc2)nc(OC)n1
CC(C)c1ccc(NC(=O)c2cc(S(=O)(=O)N(C)C3CCCCC3)ccc2F)cc1
COCC1CCN(Cc2nc(-c3ccc4c(c3)OCO4)no2)C1 (stereo not drawn)
CCOC(=O)c1c(-c2ccccc2)csc1NC(=O)CSc1ccccc1
COc1ccc(C(=O)Nc2cccc(-c3cnc4ccccc4n3)c2)cc1
Cc1ccc(NC(=O)Cc2coc3ccc(C(C)C)cc23)cc1Cl
CC1Cc2nc(SCC(=O)N3CCOCC3)n(-c3ccccc3)c(=O)c2S1 (stereo not drawn)
Cc1cc(NS(=O)(=O)c2ccc(NC(=S)NC(=O)c3ccc(Cl)cc3Cl)cc2)no1
Cc1ccc(N(CC(=O)Nc2ccc(Cl)cc2)S(=O)(=O)c2cccc3nonc23)cc1
